Test results taken from the supplement of paper PMC12217912.
This is one part of the list. Sequences were assembled here from the parent chain. Inactive controls read about 0.05.

B1: TEV protease; numbered along this chain (parent)
chain: MGESLFKGPRDYNPISSSICHLTNESDGHTTSLYGIGFGPFIITNKHLFRRNNGTLVVQSLHGVFKVKDTTTLQQHLVDGRDMIIIRMPKDFPPFPQKLKFREPQREERICLVTTNFQTKSMSSMVSDTSCTFPSGDGIFWKHWIQTKDGQCGSPLVSTRDGFIVGIHSASNFTNTNNYFTSVPKNFMELLTNQEAQQWVSGWRLNADSVLWGGHKVFMVKPEEPFQPVKEATQL

Variants of: B1
Assay: raw area under fraction-flipped curve 0-4 h after induction (AUC4h, not background-subtracted), DNA-recorder readout of cleavage of the substrate (dimensionless); higher = more cleavage of the substrate by the protease variant
Details: temperature: 34 °C; time window: 0-4 h after rhamnose induction
Experimental: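 In vivo DNA recorder in E. coli TOP10(DE3) ΔrhaA at 34 °C. Each TEVp single-site mutant (parent TEVp 0) is paired with a single-site variant of the 7-mer TEVs (canonical ENLYFQ|S). The substrate sits between flexible linkers in a Bxb1-sfGFP-TEVs-SsrA fusion, so cleavage stabilises Bxb1 and speeds flipping of a recombination array, read by NGS. The value is the raw area under the fraction-flipped curve over 0-4 h after rhamnose induction (AUC4h), with ≥20 reads per time point. It is not background-subtracted; inactive controls average about 0.047.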
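Also: Bxb1 expression induced with 0.2% (w/v) L-rhamnose at OD600 near 0.5, cultures sampled hourly, flipped fraction per protease–substrate barcode pair counted by paired-end Illumina sequencing.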

Variant: K120F
- area with substrate ENLAFQS: 0.0424
- area with substrate ENLDFQS: 0.0696
- area with substrate ENLEFQS: 0.0202
- area with substrate ENLFFQS: 0.078
- area with substrate ENLGFQS: 0.0512
- area with substrate ENLHFQS: 0.0567
- area with substrate ENLIFQS: 0.0883
- area with substrate ENLKFQS: 0.0631
- area with substrate ENLLFQS: 0.0555
- area with substrate ENLMFQS: 0.0601
- area with substrate ENLNFQS: 0.0522
- area with substrate ENLPFQS: 0.0624
- area with substrate ENLQFQS: 0.074
- area with substrate ENLRFQS: 0.0803
- area with substrate ENLSFQS: 0.0677
- area with substrate ENLTFQS: 0.0616

Variant: R160Y
- area with substrate ENLAFQS: 0.0781
- area with substrate ENLCFQS: 0.0973
- area with substrate ENLDFQS: 0.0469
- area with substrate ENLEFQS: 0.0644
- area with substrate ENLFFQS: 0.0898
- area with substrate ENLHFQS: 0.0698
- area with substrate ENLIFQS: 0.118
- area with substrate ENLKFQS: 0.0769
- area with substrate ENLLFQS: 0.136
- area with substrate ENLNFQS: 0.0544
- area with substrate ENLRFQS: 0.0741
- area with substrate ENLSFQS: 0.0697
- area with substrate ENLTFQS: 0.0598
- area with substrate ENLVFQS: 0.078

Variant: R160V
- area with substrate ENLAFQS: 0.0559
- area with substrate ENLCFQS: 0.0784
- area with substrate ENLDFQS: 0.0711
- area with substrate ENLEFQS: 0.0679
- area with substrate ENLFFQS: 0.078
- area with substrate ENLGFQS: 0.0615
- area with substrate ENLHFQS: 0.0601
- area with substrate ENLIFQS: 0.0701
- area with substrate ENLKFQS: 0.0818
- area with substrate ENLLFQS: 0.081
- area with substrate ENLNFQS: 0.0593
- area with substrate ENLPFQS: 0.0466
- area with substrate ENLQFQS: 0.0809
- area with substrate ENLSFQS: 0.0651
- area with substrate ENLVFQS: 0.0784
- area with substrate ENLWFQS: 0.067

Variant: R160D
- area with substrate ENLAFQS: 0.0651
- area with substrate ENLCFQS: 0.0852
- area with substrate ENLDFQS: 0.057
- area with substrate ENLEFQS: 0.0552
- area with substrate ENLFFQS: 0.0886
- area with substrate ENLHFQS: 0.0749
- area with substrate ENLKFQS: 0.076
- area with substrate ENLLFQS: 0.0712
- area with substrate ENLMFQS: 0.104
- area with substrate ENLNFQS: 0.0639
- area with substrate ENLQFQS: 0.0618
- area with substrate ENLRFQS: 0.0868
- area with substrate ENLSFQS: 0.0603
- area with substrate ENLTFQS: 0.0589
- area with substrate ENLWFQS: 0.0689

Variant: K142G
- area with substrate ENLAFQS: 0.0707
- area with substrate ENLCFQS: 0.0757
- area with substrate ENLDFQS: 0.0642
- area with substrate ENLEFQS: 0.059
- area with substrate ENLFFQS: 0.0779
- area with substrate ENLHFQS: 0.0645
- area with substrate ENLIFQS: 0.0709
- area with substrate ENLLFQS: 0.0467
- area with substrate ENLNFQS: 0.065
- area with substrate ENLPFQS: 0.067
- area with substrate ENLQFQS: 0.0705
- area with substrate ENLRFQS: 0.0679
- area with substrate ENLSFQS: 0.0681
- area with substrate ENLWFQS: 0.062

Variant: T30S
- area with substrate ENLAFQS: 0.0492
- area with substrate ENLDFQS: 0.0637
- area with substrate ENLEFQS: 0.0675
- area with substrate ENLFFQS: 0.083
- area with substrate ENLGFQS: 0.0684
- area with substrate ENLHFQS: 0.0646
- area with substrate ENLIFQS: 0.079
- area with substrate ENLKFQS: 0.0798
- area with substrate ENLLFQS: 0.0676
- area with substrate ENLMFQS: 0.0594
- area with substrate ENLNFQS: 0.0588
- area with substrate ENLPFQS: 0.0705
- area with substrate ENLQFQS: 0.0722
- area with substrate ENLRFQS: 0.0717
- area with substrate ENLSFQS: 0.0648
- area with substrate ENLWFQS: 0.0479
